Publication PMC4336329 (PLoS ONE, 2015)
The whole screen tested about 310,000 compounds, of which about 2,200 (0.71%) showed an effect of 50% or more. Effects have a minus sign here. The list shows a part of the results.

target: human ether-à-go-go-related gene (hERG) potassium channel (human, UniProt Q12809); assay: primary screen, population patch clamp on CHO cells stably expressing hERG
Sequence (Q12809 whole entry, looked up): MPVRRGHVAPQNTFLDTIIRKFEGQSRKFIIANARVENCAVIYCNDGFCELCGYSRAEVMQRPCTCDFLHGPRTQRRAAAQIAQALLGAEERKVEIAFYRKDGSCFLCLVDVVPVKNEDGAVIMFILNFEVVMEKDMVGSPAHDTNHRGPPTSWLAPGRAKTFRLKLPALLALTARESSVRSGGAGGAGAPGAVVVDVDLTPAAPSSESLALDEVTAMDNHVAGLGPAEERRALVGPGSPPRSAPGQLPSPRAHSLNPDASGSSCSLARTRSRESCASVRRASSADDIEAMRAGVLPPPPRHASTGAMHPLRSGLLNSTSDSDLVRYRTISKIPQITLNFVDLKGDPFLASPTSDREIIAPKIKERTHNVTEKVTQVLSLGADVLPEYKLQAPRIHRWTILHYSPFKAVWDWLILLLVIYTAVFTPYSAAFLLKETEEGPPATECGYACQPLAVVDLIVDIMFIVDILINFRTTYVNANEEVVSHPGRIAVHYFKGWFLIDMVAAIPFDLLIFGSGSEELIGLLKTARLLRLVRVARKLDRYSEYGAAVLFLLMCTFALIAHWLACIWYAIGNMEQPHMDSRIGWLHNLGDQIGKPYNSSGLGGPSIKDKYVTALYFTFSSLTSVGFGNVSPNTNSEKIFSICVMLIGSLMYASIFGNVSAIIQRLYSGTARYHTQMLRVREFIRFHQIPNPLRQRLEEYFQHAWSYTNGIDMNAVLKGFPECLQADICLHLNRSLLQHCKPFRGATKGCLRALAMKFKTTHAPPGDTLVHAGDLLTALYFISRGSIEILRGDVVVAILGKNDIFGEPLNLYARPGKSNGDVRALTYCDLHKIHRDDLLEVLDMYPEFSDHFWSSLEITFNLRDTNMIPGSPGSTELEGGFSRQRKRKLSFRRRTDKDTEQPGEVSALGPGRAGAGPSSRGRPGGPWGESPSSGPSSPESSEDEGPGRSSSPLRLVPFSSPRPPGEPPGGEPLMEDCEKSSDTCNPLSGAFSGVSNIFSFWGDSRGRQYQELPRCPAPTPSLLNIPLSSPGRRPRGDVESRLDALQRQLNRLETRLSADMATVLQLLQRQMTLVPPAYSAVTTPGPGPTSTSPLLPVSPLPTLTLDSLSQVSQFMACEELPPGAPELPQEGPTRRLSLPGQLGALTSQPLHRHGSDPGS

First: CCN(CC)c1ccc(/C=C(/C#N)C(=O)NCc2ccccc2)o1
Second: Cc1cccc2c(=O)c(C(=O)NCCc3ccccc3)c[nH]c12
The “hERG current change (%, negative = inhibition) at 1uM” value of the first is lower: 11.8% for the first, 24% for the second.

First: CCN=C1SC(CC(=O)Nc2ccc(N3CCOCC3)cc2)C(=O)N1CC (stereo not drawn)
Second: Cn1c(SCC(=O)Nc2ccc(N3CCOCC3)c(Cl)c2)nnc1C(O)c1ccccc1 (stereo not drawn)
The “hERG current change (%, negative = inhibition) at 1uM” value of the first is higher: 16.7% for the first, 1.78% for the second.

Going from `CN1CCN(c2ccccc2NC(=O)Cc2cn(C)c3ccccc23)CC1` to `O=C(Cn1c(=O)oc2ccccc21)Nc1ccccc1Cl`, the “hERG current change (%, negative = inhibition) at 1uM” value rises from -4.11% to 12.1%.

Going from `O=C(Nc1cnn(Cc2ccc(Cl)c(Cl)c2)c1)c1nc2ncccn2n1` to `Cc1nn(Cc2c(Cl)cccc2Cl)c(Cl)c1/C=N/NC(=O)c1cccnc1`, the “hERG current change (%, negative = inhibition) at 1uM” value rises from 8.67% to 10.7%.

First: COc1ccc(-c2ccc(CCC(=O)O)n2CC(=O)Nc2ccccc2C)cc1
Second: COc1ccc(-c2ccc(CCC(=O)O)n2-c2ccccc2OC)cc1
The “hERG current change (%, negative = inhibition) at 1uM” value of the first is higher: 12.8% for the first, 4.17% for the second.

Going from `O=C(NC1CCCCC1)C1CCCN(S(=O)(=O)c2ccc(Br)s2)C1` (stereo not drawn) to `COc1ccc(CCNC(=O)C2CCC(=O)N(C3CCCCCC3)C2)cc1` (stereo not drawn), the “hERG current change (%, negative = inhibition) at 1uM” value falls from 19% to 13.5%.

First: Br.CC(C)(C)c1ccc(CN2C3=NCCCN3c3ccccc32)cc1
Second: CC(C)(C)c1ccc(C(=O)N2CCN(c3nc4ccccc4o3)CC2)cc1
The “hERG current change (%, negative = inhibition) at 1uM” value of the first is lower: -79.7% for the first, 14.5% for the second.

Going from `O=C(/C(=N/O)n1cncn1)c1ccccc1Cl` to `O=C(N/N=C/c1ccncc1)c1ccccc1`, the “hERG current change (%, negative = inhibition) at 1uM” value falls from 10.7% to -1.94%.

First: CCOC(=O)/C=C1\CN(Cc2cc(OC)c(OC)c(OC)c2)S(=O)(=O)c2ccccc21
Second: COc1cc(-c2n[nH]c(=S)n2-c2ccc(C)cc2)cc(OC)c1OC
The “hERG current change (%, negative = inhibition) at 1uM” value of the first is lower: 5.36% for the first, 11.3% for the second.

`O=C(Nc1ccc(Cl)cc1)Nc1ccccc1Sc1ncc([N+](=O)[O-])s1` and `CCOc1ccccc1C(=O)Nc1ccc(S(=O)(=O)Nc2nccc(C)n2)cc1` are the same in “hERG current change (%, negative = inhibition) at 1uM” value: 10.8% for the first, 10.8% for the second.

First: O=C(CN1CCCCC1)n1c2ccccc2c2ccccc21
Second: O=C(Cc1ccccc1)NC1CCSc2ccccc21 (stereo not drawn)
The “hERG current change (%, negative = inhibition) at 1uM” value of the first is higher: 17.5% for the first, 14.2% for the second.

Going from `CCC(=O)NC(=S)Nc1ccccc1C(=O)OC` to `CC1(C(=O)OCC(=O)Nc2ccccc2Cl)CC1(Cl)Cl` (stereo not drawn), the “hERG current change (%, negative = inhibition) at 1uM” value falls from 11.6% to 4.95%.

Going from `CN(C(=O)CSc1nnc(C(F)(F)F)n1N)C1CCS(=O)(=O)C1` (stereo not drawn) to `CCOC(=O)CSc1nnc(Cc2ccccc2)n1-c1ccc(C)cc1`, the “hERG current change (%, negative = inhibition) at 1uM” value falls from 11.3% to 10.8%.

First: NNC(=O)COc1cccc(C(F)(F)F)c1
Second: O=C(COc1ccc(Br)cc1Br)NC1CCCC1
The “hERG current change (%, negative = inhibition) at 1uM” value of the first is higher: 14.3% for the first, 3.41% for the second.

Going from `Cc1noc(/C=C/N(C)C)c1S(=O)(=O)N1CCCC(C(=O)NCc2cccs2)C1` (stereo not drawn) to `Cc1ccc(CNC(=O)C2CCCN(S(=O)(=O)c3cccc4nonc34)C2)cc1` (stereo not drawn), the “hERG current change (%, negative = inhibition) at 1uM” value rises from 6.81% to 13.3%.

Going from `Clc1ccc(OCCn2c(-c3ccco3)nc3ccccc32)cc1` to `CCc1ccc(OCC(=O)Nc2ccc3oc(=O)ccc3c2)cc1`, the “hERG current change (%, negative = inhibition) at 1uM” value rises from -19% to 15.5%.

First: CCOc1ccc(NC(=O)CN2CCN(CC(=O)Nc3ccc4c(c3)OCO4)CC2)cc1
Second: COC(=O)c1cccc(NC(=O)CN2CCN(c3ccc(OC)cc3)CC2)c1
The “hERG current change (%, negative = inhibition) at 1uM” value of the first is lower: -80.9% for the first, 4.34% for the second.

Compared with `CCOC(=O)c1cn2nc(Oc3ccc(C)cc3)ccc2n1`, `CCOC(=O)C1=C(C)Nc2ncnn2C1c1c[nH]c2ccccc12` (stereo not drawn) is lower in “hERG current change (%, negative = inhibition) at 1uM” value: 9.79% for the first, 8.18% for the second.

Compared with `CCc1noc(C)c1C(=O)N(C)CC(=O)Nc1ccc(OC)cc1`, `CCOc1ccccc1N(CC(=O)Nc1ccc(C)cc1)S(C)(=O)=O` is lower in “hERG current change (%, negative = inhibition) at 1uM” value: 10.9% for the first, 10.6% for the second.

Going from `O=C(CC1C(=O)NCCN1C(=O)Nc1ccc(Cl)cc1)Nc1ccc(F)cc1` (stereo not drawn) to `Cl.O=C(NCCCN1CCOCC1)c1ccc(CSc2ccc(Cl)cc2)cc1`, the “hERG current change (%, negative = inhibition) at 1uM” value falls from 5.18% to -8.96%.

First: CN(C)S(=O)(=O)c1ccc(N)c([N+](=O)[O-])c1
Second: COc1cc([N+](=O)[O-])ccc1NC(=O)COC(=O)CCS(=O)(=O)c1ccc(C)cc1
The “hERG current change (%, negative = inhibition) at 1uM” value of the first is lower: 11.8% for the first, 14.6% for the second.

Going from `C=C1CCN([C@H](C(=O)OCc2ccc(C)cc2)C(C)C)S(=O)(=O)c2ccccc21` to `C#Cc1ccc(C(=O)NCc2ccc(N3CCCC3=O)cc2)cc1`, the “hERG current change (%, negative = inhibition) at 1uM” value falls from 4.71% to 2.7%.

First: COC(=O)C1=C(N)OC2=C(C(=O)CC(C)(C)C2)C1c1ccoc1 (stereo not drawn)
Second: C=CCC1(O)C(=O)N2C(=C1C(=O)OCC)c1ccc3ccccc3c1CC2(C)C (stereo not drawn)
The “hERG current change (%, negative = inhibition) at 1uM” value of the first is lower: 2.42% for the first, 15.6% for the second.

First: CCc1ccccc1NC(=O)CNC(=O)CNC(=O)C1CCCCC1
Second: Cc1ccc(CNC(=O)C2CCC(=O)N(CCc3ccccn3)C2)s1 (stereo not drawn)
The “hERG current change (%, negative = inhibition) at 1uM” value of the first is higher: 10.3% for the first, 5.76% for the second.

First: O=C(NCc1cccc(Br)c1)C1CC2Cn3c(nc4ccccc43)C2N1Cc1ccccc1 (stereo not drawn)
Second: Cl.c1ccc(COc2cccc(CNCc3cccs3)c2)cc1
The “hERG current change (%, negative = inhibition) at 1uM” value of the first is lower: -5.17% for the first, 15.5% for the second.

First: CC1(C)Cc2cccc(C(=O)Nc3ccc(F)cc3F)c2O1
Second: CCn1ncc(C(=O)Nc2cccc(Cl)c2)c1C
The “hERG current change (%, negative = inhibition) at 1uM” value of the first is higher: 14.9% for the first, 3.95% for the second.

Compared with `O=C(CCCCCN1C(=O)c2ccccc2C1=O)NCc1ccccn1`, `Cc1nnc(SCCN2C(=O)c3ccccc3C2=O)[nH]c1=O` is lower in “hERG current change (%, negative = inhibition) at 1uM” value: 9.82% for the first, 5.38% for the second.

Compared with `Fc1ccc(NC(=S)N2CCN(c3ccccn3)CC2)cc1Cl`, `C=CCNC(=S)Nc1ccc(Cl)c(S(=O)(=O)N2CCOCC2)c1` is lower in “hERG current change (%, negative = inhibition) at 1uM” value: 17.6% for the first, 14.3% for the second.

First: COc1ccc(CCNCc2ccc(OCC(=O)N3CCCCC3)c(OC)c2)cc1OC.Cl
Second: COc1ccc(S(=O)(=O)NCc2ccco2)cc1C(=O)N1CCCCC1
The “hERG current change (%, negative = inhibition) at 1uM” value of the first is lower: 7.87% for the first, 14.6% for the second.

Going from `Cc1cc(Nc2ccc(F)c(F)c2)nc(-c2ccccc2O)n1` to `O=C(N/N=C/c1c(O)n(-c2ccc(Cl)cn2)c(=O)c2ccccc12)c1ccncc1`, the “hERG current change (%, negative = inhibition) at 1uM” value rises from 9.93% to 25.1%.

First: COCCn1c(Cc2ccccc2)nnc1SCC(=O)Nc1oc(C)c2c(C)n[nH]c(=O)c12
Second: CCOC(=O)c1[nH]c2cc(OC)c(OC)cc2c1NC(=O)C(C)N1CCN(Cc2ccccc2)CC1 (stereo not drawn)
The “hERG current change (%, negative = inhibition) at 1uM” value of the first is higher: 13.1% for the first, -12.5% for the second.

Compared with `COC(=O)c1sc(S(=O)(=O)N2CCN(c3ccc(OC)cc3)CC2)c(C(=O)OC)c1C`, `COc1ccc(NS(=O)(=O)c2cc(NC(=O)/C=C/c3cc(OC)ccc3OC)ccc2N2CCCCC2)cc1` is lower in “hERG current change (%, negative = inhibition) at 1uM” value: -2.5% for the first, -7.48% for the second.

First: C/C=C\C=C/C(=O)Nc1cccc(C2=NOC3(C2)C[C@@H](C(N)=O)N(C(=O)/C=C/CC)C3)c1 (stereo partly drawn)
Second: Clc1ccc2c(c1)C(C1=NCCN1)c1ccccc1CS2.O=C(O)/C=C\C(=O)O (stereo not drawn)
The “hERG current change (%, negative = inhibition) at 1uM” value of the first is higher: 4.68% for the first, 1.39% for the second.

Compared with `S=C(/N=c1/sccn1Cc1ccccc1)NC1CC1`, `CC(CCc1ccccc1)NC(=O)CN(C)Cc1ccccc1F` (stereo not drawn) is lower in “hERG current change (%, negative = inhibition) at 1uM” value: 16.7% for the first, -16.1% for the second.

First: CCc1cccc(N(C(=O)c2csnn2)C(C(=O)NC(C)(C)C)c2ccccn2)c1 (stereo not drawn)
Second: Cc1ccc(C)c(NS(=O)(=O)c2cc(C(=O)NCc3ccccn3)ccc2C)c1
The “hERG current change (%, negative = inhibition) at 1uM” value of the first is higher: 10.7% for the first, 2.23% for the second.

Going from `CCCc1cc(=O)oc2cc(OCC(=O)N3C[C@H]4C[C@@H](C3)c3cccc(=O)n3C4)ccc12` to `O=C(NCCCc1ccncc1)C1CCC(=O)N(Cc2cccc(F)c2)C1` (stereo not drawn), the “hERG current change (%, negative = inhibition) at 1uM” value rises from 10.5% to 14.5%.

Going from `CCCCNc1nc2ccccc2nc1NS(=O)(=O)c1cccs1` to `Cc1cnc(NS(=O)(=O)c2ccc(Cl)cc2)c(Br)c1`, the “hERG current change (%, negative = inhibition) at 1uM” value rises from 9.75% to 15.4%.

Going from `CN(CC(=O)NCCCN1CCOCC1)S(=O)(=O)c1cc(Cl)ccc1Cl` to `O=S(=O)(c1ccc2nc(SCc3ccc(Cl)cc3)[nH]c2c1)N1CCOCC1`, the “hERG current change (%, negative = inhibition) at 1uM” value falls from 3.11% to 0.297%.

Compared with `CC(C)(C)C(=O)NC1=NN(c2c(Cl)cc(Cl)cc2Cl)C(=O)C1`, `COc1ccc(OC)c(S(=O)(=O)N(C)CC(=O)Nc2ccc3c(c2)OCO3)c1` is lower in “hERG current change (%, negative = inhibition) at 1uM” value: 21.5% for the first, 2.14% for the second.

Going from `Cc1nnc(Sc2nc3ccccc3o2)c2ccccc12` to `Cc1c(-n2c(-c3ccccc3)nc3ccccc3c2=O)c(=O)n(-c2ccccc2)n1C`, the “hERG current change (%, negative = inhibition) at 1uM” value falls from 14% to 9.63%.

Going from `CC1CCc2c(sc3ncn(CC(=O)N=Nc4c(O)[nH]c5ccccc45)c(=O)c23)C1` (stereo not drawn) to `Cc1sc2ncnc(OCC(=O)N3CCN(C(=O)c4ccco4)CC3)c2c1C`, the “hERG current change (%, negative = inhibition) at 1uM” value rises from 4.31% to 5.55%.

Going from `O=C(NCCN1C(=O)C2C3C=CC(C3)C2C1=O)Nc1ccccc1` (stereo not drawn) to `CC(C)C(OC(=O)c1ccco1)C(=O)NCc1cccs1` (stereo not drawn), the “hERG current change (%, negative = inhibition) at 1uM” value rises from -7.26% to 9.85%.

Going from `Br.CCCCCCCC1CC(CSC(=N)N)OC1=O` (stereo not drawn) to `COc1ccc(N(C(=O)c2snc(C(N)=O)c2N)C(CC(C)C)C(=O)NCC2CCCO2)cc1` (stereo not drawn), the “hERG current change (%, negative = inhibition) at 1uM” value rises from -6.65% to -5.17%.

With `Cc1nn(-c2ccc(N3CCOCC3)nn2)c(C)c1CCC(=O)NCc1ccc(F)cc1` the “hERG current change (%, negative = inhibition) at 1uM” value was 10.1%.
